By inhibition is commonly meant the drop in the measured response relative to a control, in per cent.

Where “and” joins values, the source holds several entries; their conditions need not be identical. Equal values may be shown once. Hit rate of the full screen: of about 340,000 compounds, about 6,900 (2%) were called active. Rule as the data show it: active = inhibition above about 30%; inactive = below that, where a call was filed. The entries are a selection whose mix differs from that of the whole data set. Where no call is shown, the source filed none.

These results are taken from PubChem BioAssay AID485344 (National Center for Advancing Translational Sciences (NCATS), 2010).

UniProt P14416, sequence (P14416 whole entry, looked up): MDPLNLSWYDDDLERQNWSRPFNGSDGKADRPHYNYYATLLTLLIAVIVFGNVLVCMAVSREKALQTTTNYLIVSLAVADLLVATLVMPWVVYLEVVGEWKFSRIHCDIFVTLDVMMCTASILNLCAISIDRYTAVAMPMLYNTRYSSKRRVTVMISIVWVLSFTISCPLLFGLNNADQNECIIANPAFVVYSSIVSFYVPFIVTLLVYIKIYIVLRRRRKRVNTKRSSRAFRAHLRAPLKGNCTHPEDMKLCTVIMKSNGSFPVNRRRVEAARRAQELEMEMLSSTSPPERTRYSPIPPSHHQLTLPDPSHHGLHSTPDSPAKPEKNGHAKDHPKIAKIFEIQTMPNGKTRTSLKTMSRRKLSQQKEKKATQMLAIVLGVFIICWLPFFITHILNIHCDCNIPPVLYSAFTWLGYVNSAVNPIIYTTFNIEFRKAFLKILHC

The test deals with D(2) dopamine receptor (Homo sapiens) (UniProt P14416). The test can be described thus: HTS Assay for Allosteric Antagonists of the Human D2 Dopamine Receptor: Primary Screen for Antagonists. Also: 0% is about no effect. The following applies: HEK293 TREx D2 cells, calcium flux, dopamine EC80; at 10 µM; stronger effect = higher value. The method in brief:
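Dopamine at EC80 is the agonist stimulus; test compounds precede it by 180 s. Calcium flux read kinetically in a force-coupled, inducible HEK293 T-REx D2 cell line.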
`CS(=O)(=O)N(CC(=O)NCCc1ccccc1)c1cc(C(F)(F)F)ccc1Cl`: the inhibition is -17.3%.

As to `Cc1cccc(-c2nnn3c2nc(NCCc2ccc(S(N)(=O)=O)cc2)c2cc(Cl)ccc23)c1`, the inhibition is -1.25%.

Take `CSc1ccc(-c2nc3ccc(C)cn3c2Nc2ccccc2C)cc1`: the inhibition is -7.63%.

As for `CCOc1ccc(NC(=O)CC2C(=O)OCCN2CC)cc1` (stereo not given), the inhibition was 18.4%.

On to `COc1ccc(OC)c(-n2cnc3cc(C(=O)NC4CCCCCC4)ccc32)c1`, for which the inhibition was 7.95%.

On to `COc1ccccc1NC(=O)c1cnc(SCC(=O)N2CCCc3ccccc32)n(C)c1=O`, for which the inhibition is -18.4%.

On to `Cc1ccccc1CCNC(=O)c1ccc2c(c1)c(C)c(C)n2Cc1ccccc1`, for which the inhibition was determined as 0.293%.

Consider `CCOc1ccc(CNC(=O)CSc2nnc(C)c3c(C)n(-c4ccccc4)nc23)cc1`, for which the inhibition stood at 6.73%.

As to `CN1CCN(C2=Nc3ccccc3Oc3ccc(Cl)cc32)CC1`, the inhibition was active: 85.2% and active: 91%.

Consider `CC(C)CN(CCCNC(=O)CN1C(=O)CSc2ccc(S(=O)(=O)N3CCOCC3)cc21)CC(C)C`, for which the inhibition was determined as 22.1%.

On to `CCc1ccccc1N1C(=O)N(Cc2ccccc2C)c2ccccc2S1(=O)=O`, for which the inhibition came to 13.2%.

`COc1ccc(S(=O)(=O)n2ccnc2)cc1C(C)(C)C`: the inhibition was -22.8%.

Take `COc1ccc(OC)c2sc(N3CCN(C(=O)C4CC4)CC3)nc12`: the inhibition came out at 14.7%.

For `Cc1ccc(S(=O)(=O)Nc2cccc(-c3cn4cccc(C)c4n3)c2)cc1`, the inhibition was -17.2%.

In the case of `O=C(Nc1ccc(Cl)cc1Cl)c1cc(S(=O)(=O)N2CCc3ccccc32)ccc1F`, the inhibition amounted to 18.1%.

As for `CCc1ccc(C2CC(=O)Nc3cc4c(cc32)OCO4)cc1` (stereo not given), the inhibition is 27.6%.

Turning to `Cc1ccc(C)c(Nc2nc3c(S(=O)(=O)c4ccc(C(C)C)cc4)nnn3c3ccsc23)c1`, the inhibition is 18.9%.

On to `Cc1cccc(N2CCN(C(=O)c3c(C)oc4ncnc(N5CCCCC5)c34)CC2)c1C`, for which the inhibition was -6.21%.

Take `CCOC(=O)c1noc2nc(C)n(CC(=O)Nc3ccccc3F)c(=O)c12`: the inhibition came to 11.2%.

Regarding `CC1=C(C(=O)N2CCN(c3cccc(C(F)(F)F)c3)CC2)C2(CCCCC2)OC1=O`, the inhibition is 17.7%.

`CC1=C(C)/C(=N/OC(=O)c2cccc([N+](=O)[O-])c2)C=CC1=O`: the inhibition is active: 34%.

For the molecule `Cc1cccc(-c2nc(CSc3nc4c(c(=O)[nH]3)CCC4)c(C)o2)c1`, the inhibition is active: 43.4%.

For the molecule `COc1ccccc1CNC(=O)CN1C(=O)CSc2ccc(S(=O)(=O)N3CCCCC3)cc21`, the inhibition stood at 4.26%.

Take `COC(=O)c1c(Oc2ccc(C(C)=O)cc2)nnc(-c2ccccc2)c1-c1ccccc1`: the inhibition is -12.1%.

Turning to `CCCc1c(C)c2ccc(O)c(CN3CCN(c4ccc(F)cc4)CC3)c2oc1=O`, the inhibition is -4.92%.

On to `Cc1ccc(NC(=O)Cn2cc3c(n2)CCCCC3)cc1`, for which the inhibition was 3.68%.

With `Cc1ccc2c(c1)-c1nc(-c3ccc4c(c3)NC(=O)CO4)cc(-c3ccc(Cl)cc3)c1CO2`, the inhibition is -8.79%.

Turning to `Cn1c(=O)c2c([nH]c(=O)n2Cc2ccc(Cl)cc2Cl)n(C)c1=O`, the inhibition is -6.35%.

In the case of `Cc1ccc2nc(N3CCN(C(=O)C4CC4)CC3)sc2c1`, the inhibition was determined as 2.63%.

As to `CC1CCCN(CCCNC(=O)c2cn(C)c3ccc(S(=O)(=O)N(C)C4CCCCC4)cc3c2=O)C1` (stereo not given), the inhibition is 6.79% and active: 36.5%.

On to `Cc1ccc(NS(=O)(=O)c2ccc3nc(-c4ccccc4)[nH]c3c2)c(Cl)c1`, for which the inhibition is -3.34%.

`CCn1c(CNC(=O)C23CC4CC(CC(C4)C2)C3)nnc1SCC(=O)Nc1ccccc1`: the inhibition came to 2.52%.

In the case of `Cc1ccc(C)c(OCCn2cc(C(=O)c3ccco3)c3ccccc32)c1`, the inhibition is -5.73%.

Consider `COc1ccc(-c2nc(CNS(=O)(=O)c3ccccc3)cs2)cc1`, for which the inhibition came to 10.8%.

On to `COc1cccc(CNC(=O)c2cc3c(s2)-c2c(C)cccc2OC3)c1`, for which the inhibition was -12.9%.

For the molecule `O=C(Oc1ccc(F)cc1)c1nc(SCc2ccccc2F)ncc1Cl`, the inhibition was determined as 11.3%.

As for `Cc1oc2ncn(C)c(=O)c2c1C(=O)N1CCN(c2ccccc2)CC1`, the inhibition is -15.2%.

For the molecule `COc1ccccc1C(=O)NC1(C(F)(F)F)C(=O)Nc2c1c(=O)[nH]c(=O)n2-c1ccccc1` (stereo not given), the inhibition came out at 2.45%.

For `COc1ccc(-n2nc3c(N4CCCC(C(=O)NCc5cccc(F)c5)C4)nnc(C)c3c2C)cc1` (stereo not given), the inhibition is -13%.

In the case of `Cc1ccc(Cn2c(C(=O)O)c(CNC3CCCCCC3)c3ccc(C)cc32)cc1`, the inhibition was determined as 7.27%.

As to `COc1ccccc1CNC(=O)c1ccc2c(c1)N(Cc1cccc(Cl)c1)C(=O)c1ccccc1S2(=O)=O`, the inhibition was -8.34%.

With `COc1ccc(Cn2c(C(=O)O)c(CNCCc3cccs3)c3ccc(C)cc32)cc1`, the inhibition was 4.28%.

In the case of `CC(=O)c1ccc(NC(=O)Cn2c(=O)c3cccn3c3ccccc32)cc1`, the inhibition came out at 12.6%.

Consider `CCN1CCN(c2nc(Nc3ccccc3F)nc(N)c2[N+](=O)[O-])CC1`, for which the inhibition was active: 77.8%.

As to `Cc1cc(C)cc(S(=O)(=O)Nc2cccc(-c3ccc(N4CCOCC4)nn3)c2)c1`, the inhibition came to 19.1%.

Regarding `Cc1ccc(NC(=O)Cn2c(=O)n(CCC(=O)N3CCc4ccccc4C3)c(=O)c3ccccc32)cc1`, the inhibition was -15.6%.

As for `Cc1oc2ncn(CC(C)C)c(=O)c2c1C(=O)Nc1cc(F)ccc1F`, the inhibition was -5.66%.

Turning to `CC(C)(C)C(=O)NCCc1nc2ccccc2n1CCCCOc1ccc(Cl)cc1`, the inhibition is -16.6%.

For `O=C(CCCN1C(=O)C(c2ccccc2)Oc2cccnc21)Nc1ccc(Br)cc1F` (stereo not given), the inhibition stood at 9.05%.

On to `COc1ccc2c(CNCCc3cccs3)c(C(=O)O)n(Cc3ccccc3)c2c1`, for which the inhibition came out at 11.1%.

With `COc1ccc(-c2nc(SCC(=O)NCCc3ccc(OC)c(OC)c3)n[nH]2)cc1`, the inhibition was -3.31%.

On to `CCOc1ccc(CCNC(=O)c2cc3c(=O)[nH]c4ccc(C)cc4c3s2)cc1OCC`, for which the inhibition stood at 10.6%.

For the molecule `O=C(NC1CCCc2ccccc21)c1ccc2c(c1)sc1nc(-c3ccc(F)cc3)cn12` (stereo not given), the inhibition was -1.19%.

Take `Cc1ccc(Cl)cc1NC(=O)C1CCC(CNS(=O)(=O)c2cccc3nsnc23)CC1` (stereo not given): the inhibition is -9.18%.

As to `CCc1ccc2c(c1)NC(c1cccs1)=NC(c1ccc(F)cc1)=N2`, the inhibition turned out to be 5.24%.

As to `COc1ccc(NC(=O)Cn2c(=O)oc3cc(S(=O)(=O)N4CCC(C)CC4)ccc32)c(OC)c1`, the inhibition is -8.69%.

Take `CCc1ccccc1N(C)C(=O)Cn1cnc2sc(C)c(S(=O)(=O)N3CCN(c4ncccn4)CC3)c2c1=O`: the inhibition is -14.5%.

With `CCCS(=O)(=O)c1c(Nc2ccccc2C)sc(C(=O)c2ccccc2)c1N`, the inhibition was -8.16%.

As to `CCCc1cc(C(N)=O)c(NC(=O)c2ccoc2C)s1`, the inhibition was active: 30.9%.

As to `Cc1ccc(NS(=O)(=O)c2cc(Br)cc3c2N(C(=O)C2CC2)CC3)cc1C`, the inhibition worked out at 9.71%.

Regarding `COC(=O)c1ccc(Cn2nnc3sc4c(c3c2=O)CCC(C)C4)cc1` (stereo not given), the inhibition turned out to be 0.224%.

For `CCOc1ccccc1CNC(=O)CCn1ccc2cc(S(=O)(=O)N3CCC(C)CC3)ccc21`, the inhibition is -5.19%.

`COc1ccc(NC(=O)CN(C)CC(=O)Nc2sc3c(c2C#N)CCC3)cc1`: the inhibition was active: 32.2%.

Consider `CCOC(=O)Cc1ccc(NC(=O)NCc2ccc3c(c2)CCN3C(=O)CC)cc1`, for which the inhibition was determined as 23.4%.

Take `COc1ccccc1C(=O)Nc1cc2c(cc1N1CCOCC1)n(C)c(=O)n2C`: the inhibition was determined as 2.41%.

On to `COc1cc2[nH]c(=O)n(CCCCCC(=O)N3CCN(c4cccc(C(F)(F)F)c4)CC3)c(=O)c2cc1OC`, for which the inhibition came to 0.0089%.

For the molecule `O=C(NCc1cccs1)C1CCCN1C(=O)Nc1ccc(Cl)cc1` (stereo not given), the inhibition is active: 31.6%.

Regarding `COc1cccc(N2CCN(C(=O)c3c(C)oc4ncnc(N5CCOCC5)c34)CC2)c1`, the inhibition was found to be 6.18%.

In the case of `O=C(c1ccc(=O)[nH]c1)N1CCN(S(=O)(=O)c2ccccc2)CC1`, the inhibition is active: 30.9%.

`Cc1cccc(NS(=O)(=O)c2ccc3oc(=O)c4ncn(C)c4c3c2)c1C`: the inhibition was found to be 3.43%.

Regarding `CC(Sc1nnc(-c2cc3ccccc3o2)n1-c1ccccc1)C(=O)O` (stereo not given), the inhibition is active: 45%.

Turning to `CCn1c(=O)n(CC)c2cc(N3CCCCC3)c(NC(=O)Nc3ccccc3Cl)cc21`, the inhibition was -12.4%.

For the molecule `CC(C)c1ccc(NC(=O)CN(C)S(=O)(=O)c2ccc3c(c2)c(=O)n(C)c(=O)n3C)cc1`, the inhibition turned out to be 24.3%.

Regarding `COc1ccccc1NC(=O)Cn1nnc(C(=O)NCc2ccc3c(c2)OCO3)c1N`, the inhibition worked out at 3.44%.

As to `CCC(C)NC(=O)Cn1c(=O)cc(-c2ccccc2)c2c(C)nn(C)c21` (stereo not given), the inhibition came to 2.36%.

Regarding `Cn1c(NCCO)nc2c1c(=O)n(Cc1ccccc1Cl)c(=O)n2C`, the inhibition was -4.58%.

As for `O=C(NCC(c1ccco1)N1CCN(c2ccccc2F)CC1)C(=O)NC1CC1` (stereo not given), the inhibition was active: 32.7%.

`CCc1ccc(OCC(=O)N(Cc2ccc(Cl)cc2)C2CCS(=O)(=O)C2)cc1` (stereo not given): the inhibition is -11.1%.

As for `CCOC(=O)c1oc2c(c1C)-c1nn(Cc3ccc(Cl)cc3)cc1CC2`, the inhibition was 0.145%.

On to `Cc1noc(C)c1S(=O)(=O)N1CCC(C(=O)N2CCN(c3ccccc3)CC2)CC1`, for which the inhibition is 6.13%.

In the case of `COc1ccc(OCCCCn2c(CO)nc3ccccc32)cc1`, the inhibition is active: 73.6%.

Regarding `N#C/C(=C\c1ccccc1)c1nc(-c2cc3cc(Br)ccc3oc2=O)cs1`, the inhibition worked out at 13.1%.

Take `Cc1cccc(N(C)C(=O)c2cc(S(=O)(=O)N3CCCC3)cn2C)c1`: the inhibition stood at 12%.

Consider `COC(=O)c1ccccc1NC(=O)NCCc1c(C)nn(C)c1C`, for which the inhibition is 9.84%.

On to `CCc1ccc(CNCc2c(C(=O)O)n(Cc3cccc(F)c3)c3cc(OC)ccc23)cc1`, for which the inhibition was -9.74%.

Consider `COc1cccc(N2CCN(S(=O)(=O)c3ccc4[nH]c5c(c4c3)CCCC5)CC2)c1`, for which the inhibition amounted to 5.1%.

For `O=C(Nc1ccccc1Br)C1CCCN(S(=O)(=O)c2cccc3nsnc23)C1` (stereo not given), the inhibition is 2.96%.

As for `CCOC(=O)c1cccc(Nc2c3c(nc4ccccc24)CCC3)c1`, the inhibition was -8.27%.

Consider `Cc1cccc(NC(=O)c2c(NC(=O)C(F)(F)F)sc3c2CCCCC3)c1`, for which the inhibition was -2.4%.

On to `O=C1CC(c2ccccc2)Cc2[nH]c(=O)c(C(=O)Nc3cccc(F)c3)cc21` (stereo not given), for which the inhibition is 19.7%.

On to `O=C(NCCS(=O)(=O)N1CCN(c2ccccc2)CC1)C(c1ccccc1)c1ccccc1`, for which the inhibition was -3.27%.

For the molecule `O=C(Nc1ccc2c(c1)OCO2)c1cc(-c2ccccc2Cl)on1`, the inhibition was active: 37.3%.

Consider `Cc1ccc(N2CC(c3nc4ccccc4n3CCC3CCCCC3)CC2=O)cc1` (stereo not given), for which the inhibition worked out at 3.36%.

On to `COc1ccc(C2c3c(oc4ccc(F)cc4c3=O)C(=O)N2Cc2ccc3c(c2)OCO3)cc1` (stereo not given), for which the inhibition is -15.7%.

As to `CCOc1ccc(C(CC(=O)O)N2Cc3ccccc3C2=O)cc1OC` (stereo not given), the inhibition was 4.05%.
